Source: PubChem BioAssay AID1671194 (National Center for Advancing Translational Sciences (NCATS), 2021)
The campaign covered roughly 140,000 compounds. About 240 (0.17%) were called active. The inconclusive results got no clear call from the source; some entries with a clear call stand among them for comparison. Calls come from the whole dose curve; as a rule, active = well fitted inhibition curve with a large enough effect; inconclusive = small, poorly fitted or top-dose-only effect; inactive = no such curve, though single readings can be large or run the other way. A potency beside an inconclusive call is a rough fit, not a confirmed value.

Experiment: Primary qHTS assay for inhibitors of alpha-synuclein gene (SNCA) expression; note: nearly all actives have a fitted effect of over 45% in size
Conditions: HEK-293 SNCA-luciferase knock-in, luminescence, 24 h; series mostly up to 57.2 µM
Potency is the fitted concentration of half-maximal effect; tags give direction and shape of the fitted curve.

Row | SMILES | Potency
1 | COc1ccc(OC)c(CNC(=O)CN2C(=O)CCn3nc(-c4cn(C)c5ccccc45)cc32)c1 | inconclusive: 3.55 µM [inhibitor, single point]
2 | c1nnc(CC2CCNCC2)n1CC1CC1 | inactive
3 | O=C(c1ccc2cc[nH]c2c1)N1C[C@@H](CO)[C@H](c2ccccn2)C1 | inactive
4 | CCc1ccc(C(=O)N2CCC(Oc3nccnc3N(C)C)C2)cc1 (centres undefined) | inactive
5 | O=C(CCCn1c2ccccc2c(=O)c2ccccc21)Nc1ccc(F)cc1Cl | inconclusive: 12.6 µM [inhibitor, single point]
6 | COc1cc(CN(C(=O)c2oc3ccccc3c2C)C2CCS(=O)(=O)C2)cc(OC)c1OC (centres undefined) | inconclusive: 35.5 µM [inhibitor, single point]
7 | O[C@H]1[C@H](NCc2ccc(-c3ccccc3)cc2)[C@H]2CO[C@H](O2)[C@@H]1Oc1ccccc1 | inconclusive: 3.16 µM [inhibitor, partial curve, poor fit]
8 | O=c1c(-c2ccccc2)nc2cncnc2n1C1CC1 | inconclusive: 17.8 µM [inhibitor, single point]
9 | COc1ccccc1C(=O)N1CCCN(c2cc(-c3ccc(Cl)cc3)[nH]n2)CC1 | inconclusive: 22.4 µM [inhibitor, single point]
10 | CCOc1ccccc1CN(CCc1ccc2c(c1)OCO2)Cc1cccc(OC)c1OC | inconclusive: 39.8 µM [inhibitor, single point]
11 | Cc1ccc(-c2nc(S(=O)(=O)c3ccc(C)cc3)c(SCC(=O)NC3CCCCC3)o2)cc1 | inconclusive: 39.8 µM [inhibitor, single point]
12 | CCOc1ccc(C(=O)NCCn2ccn3nc(-c4ccc(OC)cc4)cc3c2=O)cc1 | inactive
13 | Cc1ccc(OCC(=O)NCC2CCN(c3cnn(C)c(=O)c3)C2)cc1 (centres undefined) | inactive
14 | CCc1ccc(-c2cc(C)no2)cc1S(=O)(=O)Nc1ccc(Cl)cc1 | inconclusive: 0.251 µM [inhibitor, single point]
15 | CS(=O)(=O)N1CCCN(C(=O)COc2ccccc2)CCNC(=O)CC1c1ccccc1 (centres undefined) | inconclusive: 8.91 µM [inhibitor, single point]
16 | COc1cc(OC)cc(C(=O)N2CCC3(CC2)NC(=O)N(c2ccc(F)cc2)N3)c1 | inconclusive: 7.08 µM [inhibitor, single point]
17 | O=C1NC(=NC2CCCC2)C2(CCN([S+](=O)([O-])c3cccc(C(F)(F)F)c3)C2)N1c1cc(F)cc(F)c1 (centres undefined) | inconclusive: 11.2 µM [inhibitor, partial curve, poor fit]
18 | Cc1ccc(-n2nc(C)c([C@@H]3C=C[C@@H](NC(=O)NC(C)C)C3)c2C)cc1Cl | inactive
19 | COc1ccc(-n2cc(C(=O)NC(C)c3ccccc3)c3ccccc3c2=O)cc1 (centres undefined) | inconclusive: 2 µM [inhibitor, full curve]
20 | O=C(Nc1nc2cccc(-c3ccc(CN4CCS(=O)(=O)CC4)cc3)n2n1)C1CC1 | inactive

Row | SMILES | Potency
21 | CCOC(=O)c1cnc2c(ccc3ccccc32)c1Nc1ccc(OC)c(OC)c1 | inconclusive: 7.08 µM [inhibitor, single point]
22 | COc1ccc(-n2c(=O)c3c(n2Cc2ccccc2)CN(C(=O)CNC(C)=O)CC3)cc1 | inconclusive: 4.47 µM [inhibitor, single point]
23 | CCOc1ccc(N(CC)S(=O)(=O)N2CCCC(C(=O)NCc3ccc(SC)cc3)C2)cc1 (centres undefined) | inconclusive: 39.8 µM [inhibitor, single point]
24 | O=C(NCc1ccccc1)c1ccccc1OC1CN(Cc2ccsc2)C1 | inconclusive: 20 µM [inhibitor, single point]
25 | COCCn1c(=O)c(-c2ccc(OC)cc2)nc2cnc(Oc3cccc(Cl)c3)nc21 | inconclusive: 22.4 µM [inhibitor, single point]
26 | CCSc1ncc(Cl)c(C(=O)N(Cc2ccccc2)c2ccc(OC)cc2)n1 | inconclusive: 39.8 µM [inhibitor, single point]
27 | COC(=O)c1cccc(C(=O)N2CCC(Cc3nc(-c4ccc(OC)cc4)no3)CC2)c1 | inconclusive: 5.01 µM [inhibitor, full curve, poor fit]
28 | COc1cc(C(=O)Nc2ccc(-n3c(C)nc4ccccc4c3=O)cc2)cc(OC)c1OC | inconclusive: 3.16 µM [inhibitor, single point]
29 | CCOC(=O)c1ccc2nc(C)cc(Nc3ccc(OC(C)C)cc3)c2c1 | inconclusive: 17.8 µM [inhibitor, single point]
30 | CCOC(=O)c1cccc(NS(=O)(=O)c2ccc3[nH]c4c(c3c2)CCCC4)c1 | inconclusive: 39.8 µM [inhibitor, single point]
31 | CCOc1ccccc1CN1CCC2(CCN(C(=O)C3CCCC3)CC2)Oc2ccccc21 | inactive
32 | Cc1cccc(C(=O)NCCc2nc3ccccc3n2Cc2ccc(Cl)cc2)c1 | inconclusive: 28.2 µM [inhibitor, partial curve, poor fit]
33 | CCOC(=O)c1ccc(N2C(=O)c3n[nH]c(-c4cccs4)c3C2c2ccc(CC)cc2)cc1 (centres undefined) | inconclusive: 31.6 µM [inhibitor, partial curve, poor fit]
34 | O=c1cnc2cnc(Oc3cccc(Cl)c3)nc2n1Cc1ccc(F)cc1 | inconclusive: 25.1 µM [inhibitor, single point]
35 | Cc1cc(Nc2ncc3c(n2)N(C)C(=O)N(c2cc(NC(=O)c4cccc(C(F)(F)F)c4)ccc2C)C3)n(C)n1 | inconclusive: 0.429 µM [inhibitor, full curve]
36 | COc1cc(CNC(=O)[C@H]2CCC[C@H]2NC(=O)c2ccncc2)cc(OC)c1 | inactive
37 | COCC(=O)N[C@H]1C[C@@H](Cc2cc(-c3ccc(OC)cc3)on2)C1(C)C | inactive
38 | CC1=C[C@@H](CNC2CC2)[C@H](C(C)C)C[C@H]1Cc1nnc(-c2ccc(C)cc2)o1 | inconclusive: 56.2 µM [inhibitor, partial curve, poor fit]
39 | N#Cc1cccc(C(=O)N2CCC(n3cc(-c4nc(C5CC5)no4)nn3)C2)c1 (centres undefined) | inconclusive: 3.16 µM [inhibitor, partial curve, poor fit]
